# In article PMC12136788:
# The other results are listed elsewhere or left out.
# T1: UNK ZnF1-3 (human, UniProt Q9C0B0 31-174)
# T1 sequence: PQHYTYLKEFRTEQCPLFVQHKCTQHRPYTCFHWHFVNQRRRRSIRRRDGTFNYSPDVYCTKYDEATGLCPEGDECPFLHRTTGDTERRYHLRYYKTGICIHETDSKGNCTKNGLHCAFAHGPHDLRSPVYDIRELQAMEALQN
# B1: chr14:66974463:66974464:+_ENSMUSG00000022044_ENSMUST00000074523|mus_hu|mus_mus_mus_hu_False|48_58 (ssRNA)
# RNA: GGGAGUUCUACAGUCCGACGAUCUUGUAGGACGACUUAUUCAGGGGAUCGGCCAGGAAGCAGGAGCAGAACAAGGACACUAGUGGGAGUUCCUUCAUCUUCUCUUUGUAGGCAGCAAGGGUCAUGUUUCUGGGAUCUGGUGGCCAACAGAGGAUUGAGCAUCA
# B2: chr1:220276048:220276049:+_ENSG00000067704_ENST00000302637|hu_hu|hu_hu_hu_mus_True|68_108 (ssRNA)
# RNA: GGGAGUUCUACAGUCCGACGAUCGCAAACAGCUUCAUUGGCGGGAAUUGUCCAAGGCUGGGUGGUCCAGACCAAAACGCUAACAGGGGAUGAGGCAUCUGUAAGAGACUCCAACUUCGGAGGAGGUCUCAGGAGGGGGAAUCUCAACAGAGGAUUGAGCAUCA
# B3: chr14:62214197:62214198:+_ENSG00000100644_ENST00000337138|hu_mus|motif|central (ssRNA)
# RNA: GGGAGUUCUACAGUCCGACGAUCAAAGCAUUAUUUUCAUGUAAAACAUGAAAAAAAUGAGUAAAAAGUUUUCAACUGCCGGUGAUCAUGAUGAGAAUUUACUGCUUUCUUAAAAAAUUAUAUUGGCAUUUCAUUAAAAAUAAUCAACAGAGGAUUGAGCAUCA
# B4: 65460711_65465984_1206_CDS_ENSG00000153914_ENST00000334121|human|control|control (ssRNA)
# RNA: GGGAGUUCUACAGUCCGACGAUCACUCCUUGACUUCCGUCUCUCCCUUGAUUUAGAGCGUUUUUUAUGUGGGCUCUUAGAUCUACGUCUGUCUUUCUGUCUUGAACGUGAUCUAUUAUGGGAUCUACUCCUGUGUUUUGAUUGCAACAGAGGAUUGAGCAUCA
# B5: chr11:69480760:69480761:-_ENSMUSG00000059796_ENSMUST00000163666|mus_hu|FALSE|FALSE (ssRNA)
# RNA: GGGAGUUCUACAGUCCGACGAUCUUUUGGGAGAAGAGCCGGCGCCUGGGGCAAGAGCCUACCCCAAAGAAAAGGGUGUCUAAAAUGUUCACGGUUCCUUCUUUUGCCUCAAAAAGUGACAUUUAUUCAAAGAAAAAAAAUGACCAACAGAGGAUUGAGCAUCA
# B6: chr9:91931296:91931297:+_ENSG00000123975_ENST00000314355|hu_hu|hu_hu_hu_mus_True|98_108 (ssRNA)
# RNA: GGGAGUUCUACAGUCCGACGAUCAGAUUGACGAUCCCCAGAUAAACUUCAUUUUUGUUGUUCUUUUGGAAGAGGUCGUCUAAAGAGAAGAAUAUGCGGUUCUGGCUCAUGAAUCAUGUAAUGAACCCAUCCUAGACUCUGUUGCAACAGAGGAUUGAGCAUCA
# B7: chr3:176740097:176740098:-_ENSG00000177565_ENST00000430069|hu_mus|hu_hu_hu_mus_True|38_48 (ssRNA)
# RNA: GGGAGUUCUACAGUCCGACGAUCUGUUUUGUAUACCACAAAAGGAGGCACUUUCAGUAUCUGCAAAAGGUGUUUAGUCCUAAAACAUACUUACCUAGAGAAUAAUUCAGGAAAACAAUCUGUUACACUCUAAGACCUACUCCACAACAGAGGAUUGAGCAUCA
# B8: chr4:25749455:25749456:-_ENSG00000091490_ENST00000264868|hu_hu|hu_hu_hu_mus_False|1_88 (ssRNA)
# RNA: GGGAGUUCUACAGUCCGACGAUCGCACUAUGACCUCUAGAAAAAUCAUUCAAGGAGAAAAAUGUAAACCAAUGUACAAUGUUAUCGCCUUCCCUGUGUGUGGAGUGUUUGUCUCAAGGCUCCUUCUAGCUGCUGGACUGCUAGCAACAGAGGAUUGAGCAUCA
# B9: 71360418_71360538_892_CDS_ENSG00000124383_ENST00000244230|human|control|control (ssRNA)
# RNA: GGGAGUUCUACAGUCCGACGAUCUACUAUGGACUUUUCUCUUGGUUUUCCCUGUCCUUUGUUUUGCACCUUGCUCUGCUGUUCCAAUUUGCUGAUAUCAAAGUCAAGGUCAGAAUCCUCAUCACUGAAAACGGGGCUUUUCCUCAACAGAGGAUUGAGCAUCA
# B10: chr16:94664741:94664742:+_ENSMUSG00000040785_ENSMUST00000117648|mus_hu|mus_mus_mus_hu_False|28_78 (ssRNA)
# RNA: GGGAGUUCUACAGUCCGACGAUCUGGUACUGAUCUUGGUAGCUGAUAUUCAGGAGAAAUGUUGGCCAAGGGUGUAUAUAUGCUGGUGUACUGGGGCAAACCUGGUACCAUGUUAAUGUAUGCUGGCGGUGUCUGGGUGAUAUCCAACAGAGGAUUGAGCAUCA
# B11: chr10:5827197:5827198:-_ENSG00000057608_ENST00000380191|perfect_dup|FALSE|FALSE (ssRNA)
# RNA: GGGAGUUCUACAGUCCGACGAUCAUAAAGGUAUGGGCUUUUGCCAUAUCUUGCCAAAGAUUCACUGUAAAGUUUAAUUCUAUUAAUGGUUUCAUAACACGGUUGAUCUAAGUAAUCAUCAGUUCUGUAAAGUGCAAGAGCAUGCAACAGAGGAUUGAGCAUCA
# B12: chr3:196311055:196311056:+_ENSG00000174013_ENST00000440469|hu_hu|motif|central (ssRNA)
# RNA: GGGAGUUCUACAGUCCGACGAUCGACCUUUGGAAGUCCUCUAAAAGCAACCCCCAGGAACUCAUAUCCACGUUCAAAAGCGGAAGUCUUAUCUUCCAUGUCCAAGAUGACUCGAAUUCUUUCUCCUAUCUGAUAUUUUGGUGCCAACAGAGGAUUGAGCAUCA
# B13: chr13:100518589:100518590:+_ENSG00000125246_ENST00000339105|hu_mus|motif|central (ssRNA)
# RNA: GGGAGUUCUACAGUCCGACGAUCUUCCCUUGACUGUCUGAGAAGUCCGUCUUCAUCUCGGAAGUCAAUGUACACAAGAUCGGUGGCUUGUAGGCCAAAGGCUUUUGCCGUGACAACAACCUUCUGCCGGGCAUAGAGGAUGUCCAACAGAGGAUUGAGCAUCA
# B14: chr16:94690093:94690094:+_ENSMUSG00000040785_ENSMUST00000117648|mus_hu|mus_mus_mus_hu_True|38_88 (ssRNA)
# RNA: GGGAGUUCUACAGUCCGACGAUCGGGCUGGGAUGACGGACACACAGAUCUUCCCAGAGGGGGAAAAAGUCUUAGUCGAUACUAAUUAAAAAGUGUUUUUAUAAUUGGAAAAUCAGAUUACAUCUAUAAAAGAUGAAAAGCAAACAACAGAGGAUUGAGCAUCA
# Target: T1, UNK ZnF1-3
# Test: nsRBNS (natural sequence RNA bind-n-seq); RBNS binding buffer (assumed for nsRBNS): 25 mM Tris pH 7.5, 150 mM KCl, 3 mM MgCl2, 0.01% Triton X-100, 500 ug/ml BSA, 20 U/ml SUPERase-In, 4 C; UNK is unkempt and MSI1 is Musashi-1; names of the RNAs are library labels; protein concentration not given here; high values mean tight binding
row,Binder,binding signal
1,B1,2.47 enrichment R
2,B2,2.42 enrichment R
3,B3,2.16 enrichment R
4,B4,0.22 enrichment R
5,B5,1.82 enrichment R
6,B6,0.959 enrichment R
7,B7,0.812 enrichment R
8,B8,0.991 enrichment R
9,B9,0.52 enrichment R
10,B10,0.902 enrichment R
11,B11,0.743 enrichment R
12,B12,1.01 enrichment R
13,B13,0.919 enrichment R
14,B14,2.58 enrichment R
